From PubChem BioAssay AID588342 (National Center for Advancing Translational Sciences (NCATS), 2011)
In all, about 360,000 compounds went through this assay and about 25,000 (6.9%) were called active. This list was built around the results that the source calls inconclusive (neither active nor inactive); the mix of calls is not that of the screen. Calls follow the shape of the dose curve; as a rule, active = well fitted inhibition curve with a large enough effect; inconclusive = small, poorly fitted or top-dose-only effect; inactive = flat fitted curve, though single readings scatter. Where the call is inconclusive, the potency comes from a doubtful curve fit.

These compounds were tested against Luciferin 4-monooxygenase (Photinus pyralis) (UniProt P08659) (assay: qHTS profiling assay for firefly luciferase inhibitor/activator using purifed enzyme and Km concentrations of substrates (counterscreen for miR-21 project)). Conditions: purified FLuc, luminescence inhibition; series mostly up to 57.5 µM; activity change, negative = inhibition: at the top concentration.
Procedure, shortened: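 Biochemical qHTS of compounds, final roughly 60 µM downward over six points, against 10 nM purified firefly luciferase using Km concentrations of substrates (10 uM D-luciferin, 10 uM ATP) in Tris acetate pH 7.5 buffer; luminescence output.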
Also: nearly all actives have a fitted effect of over 55% in size.
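For activity change, negative = inhibition in this document: plate controls were vehicle for no effect and reference inhibitor for full effect.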
Potency is read from the fitted curve at half-maximal effect; tags tell the direction and shape of the fitted curve.

Sequence of UniProt P08659 (P08659 whole entry, looked up): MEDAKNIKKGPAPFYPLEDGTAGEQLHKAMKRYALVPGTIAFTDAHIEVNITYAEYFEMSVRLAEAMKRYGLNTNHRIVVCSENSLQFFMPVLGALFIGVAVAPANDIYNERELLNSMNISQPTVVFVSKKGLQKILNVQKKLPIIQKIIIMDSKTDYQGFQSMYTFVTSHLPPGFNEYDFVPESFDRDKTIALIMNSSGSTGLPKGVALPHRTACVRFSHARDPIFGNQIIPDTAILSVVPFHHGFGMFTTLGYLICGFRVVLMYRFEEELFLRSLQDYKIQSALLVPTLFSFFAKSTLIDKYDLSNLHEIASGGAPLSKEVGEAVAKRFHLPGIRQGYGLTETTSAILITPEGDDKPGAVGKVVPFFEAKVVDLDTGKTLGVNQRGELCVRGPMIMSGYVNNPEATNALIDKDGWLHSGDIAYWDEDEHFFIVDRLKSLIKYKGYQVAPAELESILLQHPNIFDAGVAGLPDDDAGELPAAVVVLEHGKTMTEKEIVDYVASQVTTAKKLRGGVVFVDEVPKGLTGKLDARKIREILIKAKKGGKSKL

Row | SMILES | Potency | activity change, negative = inhibition
1 | O=C(Nc1ccc(Oc2cccnc2)cc1)c1cccc([N+](=O)[O-])c1 | inconclusive: 23.9 µM [inhibitor, single point] | –
2 | O=C(/C=C\Nc1ccc(S(=O)(=O)Nc2ncccn2)cc1)c1cccc2ccccc12 | inconclusive: 26.9 µM [inhibitor, single point] | –
3 | CC(Nc1ccc(Cl)cc1)C(=O)NN (stereo unspecified) | – | inactive: 1.33%
4 | CC1(C)CC(NC(=O)CCc2nnc(CCCCc3ccccc3)o2)CCO1 (stereo unspecified) | – | inactive: -1.55%
5 | CCn1c(SCC(=O)Nc2ccc(N3CCOCC3)cc2)nnc1-c1ccncc1 | inconclusive: 16.9 µM [inhibitor, partial curve] | –
6 | O=C(CCc1nc2ccccc2c(=O)[nH]1)Nc1nc(-c2cccs2)cs1 | inconclusive: 15.1 µM [inhibitor, partial curve] | –
7 | Cc1cccc(C)c1NC(=O)C(=O)NCC(c1cccnc1)N1CCc2ccccc21 (stereo unspecified) | – | inactive: -7.28%
8 | Cc1nnc(NC(=O)CSc2ccc(-c3ccc(Cl)cc3)nn2)s1 | inconclusive: 2.39 µM [inhibitor, full curve] | –
9 | COc1ccc(CCNC(=O)c2cc(COc3c(F)cccc3F)on2)c(OC)c1 | inconclusive: 26.9 µM [inhibitor, single point] | –
10 | COc1cc(NC(=O)c2cc3c(=O)n(Cc4ccco4)ccc3nc2C)cc(OC)c1OC | – | inactive: -0.143%
11 | CNC(=S)N/N=C/c1ccc2c(c1)OCCO2 | inconclusive: 23.9 µM [inhibitor, partial curve, poor fit] | –
12 | COc1ccc(C(=O)NCc2ccc3c(c2)cc(C)n3C)cc1 | inconclusive: 26.9 µM [inhibitor, partial curve, poor fit] | –
13 | COc1ccc(C(CCN(Cc2ccc(OC)c(OC)c2)C(C)=O)C(C)C)cc1 (stereo unspecified) | – | inactive: 2.85%
14 | Cc1ccc(OCCSCc2nnc(NC(=O)Nc3cccc(Cl)c3)s2)cc1 | – | inactive: 4.52%
15 | O=C(CN1CCCCC1)Nc1ccc(C(F)(F)F)cc1Cl | inconclusive: 26.9 µM [inhibitor, partial curve, poor fit] | –
16 | COc1ccc(CC2c3cc(OC)c(OC)cc3CC[N+]2(C)CCC(=O)OCCCCCOC(=O)CC[N+]2(C)CCc3cc(OC)c(OC)cc3C2Cc2ccc(OC)c(OC)c2)cc1OC (stereo unspecified) | – | inactive: 1.46%
17 | COc1ccccc1NC(=O)c1c(C)cc(C)nc1SCC(=O)Nc1ccc(C)cc1 | – | inactive: -14.3%
18 | O=C(Cc1cccs1)NCc1ccccc1F | inconclusive: 30.1 µM [inhibitor, partial curve, poor fit] | –
19 | Cc1ccc(C(=O)NC2CCCCNC2=O)cc1C (stereo unspecified) | inconclusive: 26.9 µM [inhibitor, single point] | –
20 | COc1ccc(NC(C#N)c2ccccc2OCc2ccccc2)cc1 (stereo unspecified) | inconclusive: 21.3 µM [inhibitor, partial curve, poor fit] | –
21 | Cc1cc(Nc2cccc(Br)c2)n2c(nc3ccccc32)c1C#N | – | inactive: 3.67%
22 | Cc1cccc(N(C)C(=O)c2cc3cc4ccc(C)cc4nc3o2)c1 | active: 15.1 µM | –
23 | Cc1ccc2[nH]c3c(NCc4ccccc4)ncnc3c2c1 | active: 23.9 µM | –
24 | c1ccc(CCSc2nccn2-c2ccccc2)cc1 | active: 3.38 µM | –

Row | SMILES | Potency | activity change, negative = inhibition
25 | CCOc1ccc(CCNC(=O)c2ccc3c(=O)[nH]c4c(C(=O)NC(C)C)sc(=S)n4c3c2)cc1 | active: 16.9 µM | –
26 | O=C(Nc1ccc(C(=O)N2CCOCC2)cc1)c1cc(-c2cccnc2)nc2ccc(Br)cc12 | inconclusive: 37.9 µM [inhibitor, single point] | –
27 | Cc1ccccc1C(=O)N/N=C/c1ccncc1 | inconclusive: 37.9 µM [inhibitor, partial curve, poor fit] | –
28 | Cn1cc(/C=C(\NC(=O)c2ccccc2Cl)C(=O)NCCN2CCOCC2)c2ccccc21 | inconclusive: 21.3 µM [inhibitor, single point] | –
29 | COc1ccc(N=Cc2[nH]c3ccccc3c2O)cc1 | active: 2.13 µM | –
30 | Cc1cc(C)cc(C(=O)NC(=S)Nc2cccnc2)c1 | inconclusive: 21.3 µM [inhibitor, partial curve, poor fit] | –
31 | CN1CCN(S(=O)(=O)c2ccc(-c3noc(C4CCN(S(C)(=O)=O)CC4)n3)cc2)CC1 | – | inactive: -0.844%
32 | Oc1ccc(NCc2ccccc2OCc2ccccc2)cc1 | inconclusive: 37.9 µM [inhibitor, partial curve, poor fit] | –
33 | COc1ccc(C(=O)NCCc2csc(-c3ccc(Cl)cc3)n2)c(OC)c1 | inconclusive: 33.8 µM [inhibitor, partial curve, poor fit] | –
34 | CN1CCN(c2nc(-c3cccs3)cs2)CC1 | – | inactive: -17.9%
35 | O=C(/C=C/Nc1ccccc1)c1ccccc1 | active: 0.338 µM | –
36 | COc1ccc(S(=O)(=O)Nc2cccc(-c3ccc(N4CCCCC4)nn3)c2)cc1F | active: 2.69 µM | –
37 | c1cn2c(NC3CCCCC3)c(-c3ccc(SC4CCCCC4)cc3)nc2cn1 | inconclusive: 26.9 µM [inhibitor, single point] | –
38 | COc1ccc(NC(=O)C(NS(=O)(=O)c2cccc3nsnc23)C(C)C)cc1OC (stereo unspecified) | – | inactive: -1.59%
39 | CSc1ccc(/C=N/Nc2nc(C)cc(=O)[nH]2)cc1 | inconclusive: 19 µM [inhibitor, partial curve] | –
40 | NC(=O)c1ccsc1NC(=O)CS(=O)(=O)c1ccc(Cl)cc1 | – | inactive: -1.84%
41 | CCc1cc2c(=O)n(-c3ccc(Br)cc3)cnc2s1 | inconclusive: 3.79 µM [inhibitor, full curve] | –
42 | CCOC(=O)C1=C(SCC)c2cc3c(n2C1=O)CCCC3 | inconclusive: 23.9 µM [inhibitor, single point] | –
43 | Cc1cc(C)c2oc(-c3ccc(C)c(NC(=S)NC(=O)/C=C/c4ccco4)c3)nc2c1 | inconclusive: 13.5 µM [inhibitor, partial curve] | –
44 | COc1ccc(C(=O)CCc2ccccc2O)c(OC)c1 | active: 12 µM | –
45 | Cc1cccc2sc(N(Cc3cccnc3)C(=O)c3ccco3)nc12 | inconclusive: 37.9 µM [inhibitor, partial curve, poor fit] | –
46 | CCc1ccc(-c2nc(CS(=O)CC(=O)NCc3ccco3)c(C)o2)cc1 (stereo unspecified) | inconclusive: 21.3 µM [inhibitor, partial curve] | –
47 | COc1cc(/C=C/C(=O)O)ccc1OCc1ccc([N+](=O)[O-])cc1 | inconclusive: 37.9 µM [inhibitor, partial curve, poor fit] | –
48 | CCCCN(C(=O)Cc1cccs1)c1nnc(-c2cccnc2)s1 | active: 19 µM | –

Row | SMILES | Potency | activity change, negative = inhibition
49 | Cn1c(O)c(/C=N/NC(=O)c2cc3ccccc3cc2O)c2ccccc21 | active: 16.9 µM | –
50 | O=C(c1ccco1)c1coc2c1cc(O)c1ccccc12 | inconclusive: 6.75 µM [inhibitor, partial curve, poor fit] | –
51 | COc1ccc(-c2cc(C3CCN(c4cc(Cl)nc(N)n4)CC3)[nH]n2)cc1 | inconclusive: 26.9 µM [inhibitor, partial curve, poor fit] | –
52 | Cc1ccc2nc(-c3ccc(C)s3)c(Nc3ccc4c(c3)OCCO4)n2c1 | inconclusive: 13.5 µM [inhibitor, partial curve] | –
53 | COc1ccc(CCNC(=O)CN(c2ccccc2)S(=O)(=O)N(C)C)cc1 | – | inactive: -2.75%
54 | COc1ccc(NC(=O)c2ccc(Cc3ccc(C)cc3)o2)cc1 | active: 15.1 µM | –
55 | CCc1c(C(=O)Nc2cc(C)cc(C)c2)[nH]c(C)c1C(C)=O | inconclusive: 23.9 µM [inhibitor, partial curve] | –
56 | O=C(CCc1ccccc1)Nc1cccnc1 | inconclusive: 19 µM [inhibitor, single point] | –
57 | Cc1nc2c(sc3nc4c(cc32)COC(C)(C)C4)c(=O)o1 | inconclusive: 23.9 µM [inhibitor, partial curve, poor fit] | –
58 | CC(=O)c1ccc(S(=O)(=O)N2CCCC2)cc1 | inconclusive: 26.9 µM [inhibitor, single point] | –
59 | CN(Cc1ccccc1)C(=O)CSc1nc2ccccc2[nH]1 | inconclusive: 23.9 µM [inhibitor, single point] | –
60 | CCCOc1ccc(C(=O)NNC(=S)NC(=O)c2cc(-c3ccccc3)nc3ccccc23)cc1 | inconclusive: 8.49 µM [inhibitor, partial curve] | –
61 | CCOc1cc(NC(=S)NCC2CCCO2)c(OCC)cc1NC(=O)c1cccc(C)c1 (stereo unspecified) | – | inactive: -2.41%
62 | COc1ccc(/C=N/OCC(=O)N2CCCC2)c(OC)c1 | – | inactive: 4.61%
63 | COc1ccc(-c2sc3ccc(N4CCOCC4)cc3c2C#CC(C)(C)O)cc1 | – | inactive: 1.87%
64 | Cc1cc(=O)n2[nH]c(-c3ccco3)nc2n1 | inconclusive: 21.3 µM [inhibitor, partial curve, poor fit] | –
65 | O=C(N/N=C/c1ccco1)c1[nH]ncc1Br | inconclusive: 21.3 µM [inhibitor, partial curve, poor fit] | –
66 | CC1CN=C(N(Cc2ccccc2)C(=O)Nc2ccccc2)S1 (stereo unspecified) | inconclusive: 30.1 µM [inhibitor, partial curve, poor fit] | –
67 | CCOC(=O)c1c(C)c(C(=O)Nc2ccc3c(c2)OCCO3)c(C)n1CC | inconclusive: 37.9 µM [inhibitor, single point] | –
68 | Cc1ccccc1OCCSc1nnc(-c2cccs2)o1 | inconclusive: 21.3 µM [inhibitor, partial curve, poor fit] | –
69 | O=C(N/N=C/c1nn(-c2ccccc2)cc1-c1ccc(Cl)cc1)c1ccncc1 | inconclusive: 9.53 µM [inhibitor, partial curve] | –
70 | O=C(Nc1cc(C(F)(F)F)ccc1N1CCOCC1)C1Cc2ccccc2CN1C(=O)c1ccco1 (stereo unspecified) | – | inactive: -5.32%
71 | O=c1c2sccc2nc(SCc2cc(=O)n3cc(Br)ccc3n2)n1Cc1ccccn1 | – | inactive: -0.649%
